Results taken from PubChem BioAssay AID686979 (National Center for Advancing Translational Sciences (NCATS), 2013).
Screen size: about 420,000 compounds; about 50,000 (12%) were called active. The inconclusive results got no clear call from the source; some entries with a clear call stand among them for comparison. The call rests on the fitted dose curve; in most records, active means well fitted inhibition curve with a large enough effect; inconclusive means small, poorly fitted or top-dose-only effect; inactive means flat fitted curve, though single readings scatter. No potency is given beside an inconclusive call; the fits are too rough.

assay: qHTS for Inhibitors of human tyrosyl-DNA phosphodiesterase 1 (TDP1): qHTS in cells in presence of CPT; settings: chicken DT40 Tdp1-/-;hTDP1 cells + 20 nM CPT, ATP luminescence, 48 h; activity change, negative = growth inhibition: at 46.2 µM (top of the series); further: nearly all actives have a fitted effect of over 55% in size
Summary of the method: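 Cell growth measured by CellTiter-Glo luminescence after a minimum 48 h, 37 C compound exposure with 20 nM CPT in Tdp1-knockout DT40 cells stably expressing hTDP1, seeded 400/well; qHTS titration format.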
On the % scale 0 is the no-effect control and ±100 the full control effect; potency means the concentration at half of the fitted maximal effect; tags describe the fitted curve by direction and shape.

| Structure (SMILES) | Potency | activity change, negative = growth inhibition |
| --- | --- | --- |
| CCOc1cc2[nH]c(=O)n(CCCCCC(=O)NCc3ccco3)c(=O)c2cc1OCC | inconclusive [inhibitor, single point] |  |
| COCCn1c(C)cc(C(=O)CSc2nc3ccccc3c(=O)[nH]2)c1C | active: 16.4 µM |  |
| CCOC(=O)c1c(C)n(C)c2ccc(O)c(CN(CC)CC)c12 | inconclusive [inhibitor, single point] |  |
| c1ccc2c(CCC3CCNCC3)c[nH]c2c1 | inconclusive [inhibitor, partial curve] |  |
| Cc1ccc(C)c(Cn2c(=O)c3c(nc4n3CCN4c3ccccc3)n(C)c2=O)c1 |  | inactive: 9.71% |
| CC1CC(C)CN(C(=O)CCNC(=O)c2ccccc2Cl)C1 (configuration not stated) |  | inactive: 4.85% |
| CC1=C(C(=O)Nc2ccc(Cl)cc2)C(c2ccccc2)n2ncc(C(=O)Nc3ccccc3)c2N1 (configuration not stated) | active: 20.6 µM |  |
| COCCCn1c(C23CC4CC(CC(C4)C2)C3)n[nH]c1=S |  | inconclusive: -19.5% [inhibitor] |
| Cc1cccc(N2CCN(S(=O)(=O)c3ccc4c(c3)NC(=O)CS4)CC2)c1C | inconclusive [inhibitor, single point] |  |
| COc1ccc(N2CCN(C(=O)CCN3C(=S)NC(C)(C)CC3C)CC2)cc1 (configuration not stated) |  | inactive: 12.3% |
| O=C(Oc1ccc(C(=S)N2CCOCC2)cc1Br)c1cc(Cl)ccc1Cl | inconclusive [inhibitor, single point] |  |
| Cc1ccc(C)c(-c2ccc(=O)n(Cc3c(F)cccc3Cl)n2)c1 | inconclusive [inhibitor, single point] |  |
| O=C(COc1ccc(/C=N/NC(=O)c2ccncc2)cc1)Nc1cccc([N+](=O)[O-])c1 |  | inconclusive: -20% [inhibitor] |
| CCOC(=O)C1CCN(C(=O)CNC(=O)c2nn(-c3ccc(OC)c(Cl)c3)c(=O)c3ccccc23)CC1 | inconclusive [inhibitor, single point] |  |
| COc1ccc(NC(=O)CSc2nc(-c3cccc(C)c3)[nH]c2-c2ccccc2)cc1OC | active: 9.2 µM |  |
| O=C1C=C(NC2CCCCC2)CCC1 |  | inactive: 9.33% |
| CC(=O)N1CCc2c(sc3c2c(=O)n(CCc2ccccc2)c(=O)n3Cc2ccccc2C)C1 | active: 14.6 µM |  |
| CC(=O)c1cn(CC(=O)Nc2ccc(C)c(C)c2)c2ccccc12 |  | inactive: 6.64% |
| O=C(CO/N=C/c1ccc(OC(F)F)cc1)NC1CCCCCC1 | inconclusive [inhibitor, single point] |  |
| O=C(Nc1ccc(F)cc1)C1CCCN(S(=O)(=O)c2ccc3[nH]c(=O)ccc3c2)C1 (configuration not stated) | inconclusive [inhibitor, partial curve, poor fit] |  |
| CCSc1ncc(Cl)c(C(=O)Nc2sc3c(c2C(=O)NCCCOC)CCCC3)n1 | inconclusive [inhibitor, single point] |  |
| O=C(NCc1nnnn1-c1ccc(F)cc1)c1ccc2ccccc2c1 |  | inactive: -3.18% |
| CN(CC(=O)Nc1ccc(F)c(F)c1F)C(=O)c1cc(S(=O)(=O)N(C)C)ccc1N1CCCC1 |  | inactive: -13.8% |
| COc1cc(OC)c(/C=C/c2nc3ccccc3o2)c(OC)c1 | inconclusive [inhibitor, single point] |  |

| Structure (SMILES) | Potency | activity change, negative = growth inhibition |
| --- | --- | --- |
| CCN(CC)S(=O)(=O)c1ccc2c(c1)c(=O)c(C(=O)N1CCN(c3cc(Cl)ccc3C)CC1)cn2C | active: 16.4 µM |  |
| CC(C)c1ccc(NC(=O)COC(=O)[C@H](CCC(N)=O)NC(=O)c2ccc(F)cc2)cc1 |  | inactive: 0.619% |
| CCOc1ccc(CCNC(=O)Cn2ccc3ccccc3c2=O)cc1OCC |  | inactive: -1.55% |
| O=C(CC1CC2CCC1C2)Nc1nc(-c2ccccn2)cs1 (configuration not stated) | inconclusive [inhibitor, full curve] |  |
| O=C(CN1C(=O)NC2(CCCC2)C1=O)OCCOc1ccc(Br)cc1 | active: 14.6 µM |  |
| CCCCCCCCCCN(CCCCCCCCCC)c1ccccc1 | inconclusive [inhibitor, partial curve] |  |
| CCOC(=O)c1cc(NC(=O)C2C3C=CC(O3)C2C(=O)O)cc(C(=O)OCC)c1 (configuration not stated) |  | inactive: -13.8% |
| COc1ccc(C)cc1NC(=O)C(Sc1nnc2ccccn12)c1ccccc1 (configuration not stated) |  | inactive: -19.7% |
| CCCCSCCCNC(=O)CCCN1C(=O)c2ccccc2Sc2ncccc21 | inconclusive [inhibitor, single point] |  |
| O=C(Nc1ccc(NC(=S)NC(=O)c2ccco2)cc1)c1ccc(Br)cc1 |  | inactive: 7.14% |
| CC1Cc2cc(S(=O)(=O)N3CCCCC3C)ccc2N1C(=O)C1CCC1 (configuration not stated) | inconclusive [inhibitor, single point] |  |
| CCCOc1ccc(/C=N/Nc2cccc([N+](=O)[O-])c2)c(O)c1 | inconclusive [inhibitor, single point] |  |
| O=C(NC1CCCCC1)c1ccc([N+](=O)[O-])o1 | inconclusive [inhibitor, single point] |  |
| Cc1cccc(N2CCN(CC(=O)NCc3ccc(Cl)cc3)CC2)c1C | inconclusive [inhibitor, single point] |  |
| Cc1ccc(S(=O)(=O)N2CCN(c3nc(-c4cccs4)cc4ccccc34)CC2)cc1 | inconclusive [inhibitor, single point] |  |
| CS(=O)(=O)N(CC(=O)N/N=C/c1ccco1)c1ccccc1Br |  | inactive: -12.8% |
| COc1ccc(-c2ccc(C(C)=O)cc2)cc1[C@H]1[C@H]2C=CC[C@@H](C)[C@@H]2C(=O)N1Cc1ccccc1 | active: 23.1 µM |  |
| CC(=O)Nc1ccc2sn(-c3ccccc3)c(=O)c2c1 | active: 2.06 µM |  |
| Cc1cc(N2CCN(C(=O)c3cccs3)CC2)c(F)cc1[N+](=O)[O-] | active: 10.3 µM |  |
| O=C(Oc1ccccc1F)c1nc(SCc2ccc(F)cc2)ncc1Cl |  | inactive: -10.6% |
| COc1ccc(C(=O)Nc2cccc(/C=C(\CCC(=O)O)c3nc4ccccc4s3)c2)cc1 | inconclusive [inhibitor, single point] |  |
| CCOc1ccc(Nc2c(S(=O)(=O)c3ccccc3)cnc3ccc(F)cc23)cc1 | inconclusive [inhibitor, single point] |  |
| Fc1cccc(Cn2cc(C(=S)N3CCCCC3)c3ccccc32)c1 | inconclusive [inhibitor, single point] |  |
